{"source": "paper PMC12136788", "binders": {"B1": {"name": "chr11:46405157:46405158:+_ENSG00000110492_ENST00000395566|hu_hu|hu_hu_hu_mus_False|68_98 (ssRNA)", "RNA": "GGGAGUUCUACAGUCCGACGAUCCCCUCCCCACUUUGGCUGGGGAGUGUGGGCGUGAGAGGACAGGAUGAUUGAUUAGAGCUGACAGGAAGACAAAAGGCACUGGUGGGUUAUAUCUUGGGCCUGUGGGAGAGGAGGGCUCCGCAACAGAGGAUUGAGCAUCA"}, "B2": {"name": "chr8:72619762:72619763:-_ENSMUSG00000002341_ENSMUST00000002412|mus_mus|FALSE|FALSE (ssRNA)", "RNA": "GGGAGUUCUACAGUCCGACGAUCCAGGAGGAUUGAGACUUCAAGGACAUCUUUCUACAAUAGUGAGUUCGAGGCCAGCCUAGUUUGGGGGUUGGAGGUGUUGGAAUUGGGAGGGAGGAAGAAGAAAGGGGAAAAAAAAAGAAACAACAGAGGAUUGAGCAUCA"}, "B3": {"name": "chr17:61655871:61655872:+_ENSG00000136485_ENST00000310827|hu_mus|motif|central (ssRNA)", "RNA": "GGGAGUUCUACAGUCCGACGAUCGGUAGGGUACGGGUGGUCAAAGGUGUUUCGGCAAAUAAACUCUGAACUCUCCUCAUCGGAACCAACAAGCUGAACCUUGUUGUUGUACUCUUCCACGAAGCUGCCCAGCGCCAGGCGAAACAACAGAGGAUUGAGCAUCA"}, "B4": {"name": "chr19:46159329:46159330:+_ENSMUSG00000015176_ENSMUST00000165017|mus_mus|FALSE|FALSE (ssRNA)", "RNA": "GGGAGUUCUACAGUCCGACGAUCUACAACAGUCAAGUUGUUGCAAAAUGUCUGUCAGAAAAGCUUACUUCGAAAUUAAAACUAAAAGUACUGUAAACAUGUAGCAGUAACAGCUACCAAGAACAAAACAAAGACAGCUGCAUGCAACAGAGGAUUGAGCAUCA"}, "B5": {"name": "chr9:80412558:80412559:-_ENSG00000156052_ENST00000286548|hu_mus|FALSE|FALSE (ssRNA)", "RNA": "GGGAGUUCUACAGUCCGACGAUCAGUGGGGACUCGAACUCUAAGCACGUCUUGUUGUGUAGGCAGAUAGGAAGGGUCGGCUACACGGUCCAAGUCAUUCAGAUAGUAUUUGGUAGAGUCAGAUAACUGAUAUUCCCGUCGUCUCAACAGAGGAUUGAGCAUCA"}, "B6": {"name": "chr3:63791606:63791607:+_ENSMUSG00000027823_ENSMUST00000029405|mus_hu|FALSE|FALSE (ssRNA)", "RNA": "GGGAGUUCUACAGUCCGACGAUCAAGCAAAACAACUUCUUCCUUCUGAAGGCCCCUGAAUAAUGAACAUGUAUUAUCCACACUAAUGUUGAAAACUCCAUCUUCUCUGACACUUUUUUUGUGCACAGUACCUCCAAAUACCUUCAACAGAGGAUUGAGCAUCA"}, "B7": {"name": "chr22:24237240:24237241:+_ENSG00000240972_ENST00000215754|hu_mus|FALSE|FALSE (ssRNA)", "RNA": "GGGAGUUCUACAGUCCGACGAUCGACUCAAGCGAAGGUGGAACCGUUCCAGCCCACGUUGGCAGCGUUCAUGUCGUAAUAGUUGAUGUAGACCCGGUCCGGGCUGAUGUGCAGGCGAUCGGACAGCAGGCCACACAGCAGCUUCAACAGAGGAUUGAGCAUCA"}, "B8": {"name": "chr14:89307221:89307222:+_ENSG00000165533_ENST00000346301|hu_mus|hu_hu_hu_mus_False|28_78 (ssRNA)", "RNA": "GGGAGUUCUACAGUCCGACGAUCUCCUGUUUGGUUAGUGCCAGGGAGCUUCAAAGACGUUCCAGGGCGUGGGACCUGAGCAAUAGCAUUUUCAUCCAGGAUCAUUUCUGCAAUUCCUUCCUGGUCCACAUCAAUUUCAUCUAUCAACAGAGGAUUGAGCAUCA"}, "B9": {"name": "chr3:95061978:95061979:-_ENSMUSG00000015711_ENSMUST00000015855|mus_hu|FALSE|FALSE (ssRNA)", "RNA": "GGGAGUUCUACAGUCCGACGAUCGCGUUCCAGGACUUCACAGAUCGUUGUUUGGAGUGCCACAUGGGGACAGAAAAUAGCCAACUGCCGCACUGGCUCAUUGUGAGUGUUGAAAAAGAUAGUCAUGGCAACCAGGACAUCAUACAACAGAGGAUUGAGCAUCA"}, "B10": {"name": "chr4:83347727:83347728:-_ENSG00000152795_ENST00000602300|hu_mus|motif|central (ssRNA)", "RNA": "GGGAGUUCUACAGUCCGACGAUCCCAGUAUAAUCAUAGCCGCCAUAGCCACUAUAGUUCUGAUCACCACCAUAGGCACGGUUAUAAUUUCCAUAUCCUUGAUCAUAAUAGUUAUUAAAUCCUUGGUUCCAGUUUUGGCCCUGACAACAGAGGAUUGAGCAUCA"}, "B11": {"name": "chr16:33771563:33771564:+_ENSMUSG00000075254_ENSMUST00000152782|mus_mus|FALSE|FALSE (ssRNA)", "RNA": "GGGAGUUCUACAGUCCGACGAUCAGACUUAGAGUGGAUAUAAGUAUAAAAAAUAACCAAAUUCUUACAAAUAACACAUUGCUACUACAGUACUGAAUAAUUAUUGGAGGUGACAUUAUAAUACAACUUUAAAUAACAUUCUCACAACAGAGGAUUGAGCAUCA"}, "B12": {"name": "chr7:141445308:141445309:+_ENSG00000106028_ENST00000265304|hu_hu|hu_hu_hu_mus_False|68_68 (ssRNA)", "RNA": "GGGAGUUCUACAGUCCGACGAUCUAUGAUUGUUGUUGCUUGCCGCCUCACAUUGUUUUUAUCCAUGUAUUCACCAUAGUCCACUUUCCCUUCCACAAAUAUACGAGCCCCCUUUUUCACAUACUGAUAUGCCACAUCUCUGAGCAACAGAGGAUUGAGCAUCA"}, "B13": {"name": "5801301_5805119_1971_3pUTR_ENSG00000099219_ENST00000339450|human|control|control (ssRNA)", "RNA": "GGGAGUUCUACAGUCCGACGAUCGCUCUUGGCAAGGUAGAUGAAGUUAAUAAAAUAGGACGAGAGAAUCAUUGUACAGCCAGCCAAAAUGGAUGCCAGCACAACAUCAGGUGGGAUUUCAGAACCACUUCUCCCGAGGAUAGGCAACAGAGGAUUGAGCAUCA"}, "B14": {"name": "chr4:148551591:148551592:-_ENSMUSG00000063077_ENSMUST00000060537|mus_hu|mus_mus_mus_hu_False|58_68 (ssRNA)", "RNA": "GGGAGUUCUACAGUCCGACGAUCACCUGACAAAAUUAAAUAUCCCUGUAAAUUAGACAAUAAGCAGCAGGUAACAAAGUCUAUGCUUUGGAAUAUGUGCCAGGAAAAGUCAUCUUGUUUUUAGAUCUCAAGAGACAGUUCACACAACAGAGGAUUGAGCAUCA"}, "B15": {"name": "28395116_28395236_4612_CDS_ENSG00000100154_ENST00000397906|human|control|control (ssRNA)", "RNA": "GGGAGUUCUACAGUCCGACGAUCCUCUUCCUCGGCCGAUGGCAUGGGCCCCCACAGCCACCUGUCCAUCACGGCCGAUGGUAGCUUGGGGUUGCCGAUGACAGCCGCCAUGGAUGUGGAGCUGGAGUAUGUGGGCGGGUUCUUCAACAGAGGAUUGAGCAUCA"}, "B16": {"name": "chr7:26236612:26236613:-_ENSG00000122566_ENST00000356674|hu_hu|FALSE|FALSE (ssRNA)", "RNA": "GGGAGUUCUACAGUCCGACGAUCAACAAACAGCUUCUUCACAGUUACAUGAGCCCCUGGUUUUCCAGAUUCCUCUCUUGCUACAGCACGUUUUGGCUCAACUACUCUCCCAUCAAUUGAAUGAGGUCUUGCAGCCAUGGCAGCCAACAGAGGAUUGAGCAUCA"}, "B17": {"name": "chr18:47247233:47247234:+_ENSMUSG00000042705_ENSMUST00000049388|mus_mus|FALSE|FALSE (ssRNA)", "RNA": "GGGAGUUCUACAGUCCGACGAUCACGGCCUGCGGCUGCUUCCCUAAUUAAUUACUGUAAUGAGUAAGGUUUCAUACUCUGCUAGGGCACCAUCAUACCUUCUGCCUACAGACCUUCCCUGAUCCCUGAAAGCAAUCUGACAGACAACAGAGGAUUGAGCAUCA"}, "B18": {"name": "chr12:39763582:39763583:-_ENSG00000139116_ENST00000544797|hu_mus|hu_hu_hu_mus_False|68_88 (ssRNA)", "RNA": "GGGAGUUCUACAGUCCGACGAUCCUCUAGGAACUGGGCAUUCACUUUAAAAUCUGGAGGGGGCAGCCCAUUUUUAAUCGCUGAGGUCUUUUUCUCAUCAAUACUCUUGAACAGGUGUCUAACAGCACGAGAGAUGAUGCCCUGCAACAGAGGAUUGAGCAUCA"}, "B19": {"name": "chr3:88342849:88342850:+_ENSMUSG00000074480_ENSMUST00000172699|mus_hu|FALSE|FALSE (ssRNA)", "RNA": "GGGAGUUCUACAGUCCGACGAUCCUUUGUGGGUAAAGAGUGGAGAGGGGGAGGGGGACGACAGACAGACAUCCCUUCUUCCCACCCCCCUCCCCACCUGCCCCCCGGCAACCGAGGGUGCCCAUUUGGUUUGGUUUCUAUUGUCAACAGAGGAUUGAGCAUCA"}, "B20": {"name": "chr7:127978362:127978363:-_ENSG00000106344_ENST00000459726|hu_mus|FALSE|FALSE (ssRNA)", "RNA": "GGGAGUUCUACAGUCCGACGAUCUAUCUCCUUCAUAUUCGCGCCUUUGAGAGCUUUUCCUGCUUCAAGGAGGUUUUUGAACUGAACAAAAGCAAAACCACGCAUCUUUCCAUCUGGCUUCUUUGGGAUAUUCACUUCAAGAACCAACAGAGGAUUGAGCAUCA"}, "B21": {"name": "chr1:39494447:39494448:+_ENSG00000168653_ENST00000372967|hu_mus|hu_hu_hu_mus_False|58_78 (ssRNA)", "RNA": "GGGAGUUCUACAGUCCGACGAUCGCACCGAGCGGCGUUCUUAUAGGGCUGUUCUGCACUCUGGAUUAUAAAGUGCCGAUCUAUGUUGAUGCCCAGCUUUUUCUGUAUGUCAAGGAAAGGCAUGGCUCUGCAGUGCCCUUGUCACAACAGAGGAUUGAGCAUCA"}, "B22": {"name": "chr14:67421766:67421767:-_ENSMUSG00000022048_ENSMUST00000022629|mus_mus|FALSE|FALSE (ssRNA)", "RNA": "GGGAGUUCUACAGUCCGACGAUCACAUUUUGCUUUAUUGGGUGUUCCGUGGUAAUAUAACACAGACUUCUUAAGGAAUAAUAAACACGAGACUUGUAUUUUACCAUAAUUAUUUUGCCAUUAAGACAGUGGUUACAAAAAAUACAACAGAGGAUUGAGCAUCA"}}, "note": "The list shows a part of the results.", "data": [{"biological_target": "T1, UNK ZnF1-3 (human, UniProt Q9C0B0 31-174)", "T1 sequence": "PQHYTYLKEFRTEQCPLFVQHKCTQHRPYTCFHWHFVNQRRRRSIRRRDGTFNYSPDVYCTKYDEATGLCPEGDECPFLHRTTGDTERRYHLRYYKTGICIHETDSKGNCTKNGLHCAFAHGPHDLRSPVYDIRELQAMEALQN", "test": "nsRBNS (natural sequence RNA bind-n-seq); RBNS binding buffer (assumed for nsRBNS): 25 mM Tris pH 7.5, 150 mM KCl, 3 mM MgCl2, 0.01% Triton X-100, 500 ug/ml BSA, 20 U/ml SUPERase-In, 4 C; UNK is unkempt and MSI1 is Musashi-1; names of the RNAs are library labels; protein concentration not given here; high values mean tight binding", "units": {"binding signal": "enrichment R"}, "values": [{"binder": "B1", "binding signal": 1.81}, {"binder": "B2", "binding signal": 1.9}, {"binder": "B3", "binding signal": 0.965}, {"binder": "B4", "binding signal": 1.35}, {"binder": "B5", "binding signal": 0.681}, {"binder": "B6", "binding signal": 1.31}, {"binder": "B7", "binding signal": 0.931}, {"binder": "B8", "binding signal": 0.653}, {"binder": "B9", "binding signal": 1.23}, {"binder": "B10", "binding signal": 1.03}, {"binder": "B11", "binding signal": 1.53}, {"binder": "B12", "binding signal": 0.742}, {"binder": "B13", "binding signal": 1.95}, {"binder": "B14", "binding signal": 1.08}, {"binder": "B15", "binding signal": 0.418}, {"binder": "B16", "binding signal": 0.929}, {"binder": "B17", "binding signal": 0.919}, {"binder": "B18", "binding signal": 1.61}, {"binder": "B19", "binding signal": 0.464}, {"binder": "B20", "binding signal": 1.16}, {"binder": "B21", "binding signal": 0.733}, {"binder": "B22", "binding signal": 0.931}]}]}
